To fix the notation:
B1: PhoQ; a variant is named by its letters at X, in order, P23837 (parent)
chain: MKKLLRLFFPLSLRVRFLLATAAVVLVLSLAYGMVALIGYSVSFDKTTFRLLRGESNLFYTLAKWENNKLHVELPENIDKQSPTMTLIYDENGQLLWAQRDVPWLMKMIQPDWLKSNGFHEIEADVNDTSLLLSGDHSIQQQLQEVREDDDDAEMTHSVAVNVYPATSRMPKLTIVVVDTIPVELKSSYMVWSWFIYVLSANLLLVIPLLWVAAWWSLRPIEALAKEVRELEEHNRELLNPATTRELTSLVRNLNRLLKSERERYDKYRTTLTDLTHSLKTPLXXLQXXLRSLRSEKMSVSDAEPVMLEQISRISQQIGYYLHRASMRGGTLLSRELHPVAPLLDNLTSALNKVYQRKGVNISLDISPEISFVGEQNDFVEVMGNVLDNACKYCLEFVEISARQTDEHLYIVVEDDGPGIPLSKREVIFDRGQRVDTLRPGQGVGLAVAREITEQYEGKIVAGESMLGGARMEVIFGRQHSAPKDE

Some of the results follow. Bounds are passed on as bounds.

Variants of B1 are the subject of this assay. Briefly: enrichment ratio after two sorts for PhoP signalling (ratio (wild type AVST 3.29)); higher = more functional. The note with it: with PhoP (E. coli).
Consider VVPT, for which the enrichment ratio is at most 0.25.

For SAVK, the enrichment ratio was 1.37.

Regarding GDRD, the enrichment ratio was at most 0.25.

QFRE: the enrichment ratio is at most 0.25.

On to SRAP, for which the enrichment ratio was at most 0.25.

On to SHPF, for which the enrichment ratio was at most 0.25.

As to HIWS, the enrichment ratio is at most 0.25.

HEDA: the enrichment ratio is at most 0.25.

For REWS, the enrichment ratio was at most 0.25.

For the variant TNFV, the enrichment ratio is at most 0.25.

On to IAAE, for which the enrichment ratio was at most 0.25.

For HEWG, the enrichment ratio is at most 0.25.

Turning to ECPD, the enrichment ratio is at most 0.25.

Take SWAE: the enrichment ratio was at most 0.25.

Take ACSK: the enrichment ratio turned out to be 4.64.

MKFV: the enrichment ratio was 2.26.

In the case of FRRC, the enrichment ratio was at most 0.25.

Regarding TIHK, the enrichment ratio worked out at 3.94.

As to NRPT, the enrichment ratio was at most 0.25.

As to VAGC, the enrichment ratio worked out at 3.06.

As to DVPS, the enrichment ratio was at most 0.25.

With FRDE, the enrichment ratio was at most 0.25.

As for EVRD, the enrichment ratio was at most 0.25.

Take GDSV: the enrichment ratio was 6.2.

As for QSNI, the enrichment ratio was at most 0.25.

With FKTD, the enrichment ratio was at most 0.25.

Consider IPEI, for which the enrichment ratio is at most 0.25.

As for RHSW, the enrichment ratio is at most 0.25.

With DMDY, the enrichment ratio was at most 0.25.

Turning to IEQQ, the enrichment ratio is at most 0.25.

In the case of PYTE, the enrichment ratio was at most 0.25.

On to GSEV, for which the enrichment ratio was at most 0.25.

In the case of DCMM, the enrichment ratio was at most 0.25.

TCGP: the enrichment ratio was found to be 1.63.

On to PIQA, for which the enrichment ratio is at most 0.25.

FKLN: the enrichment ratio is at most 0.25.

In the case of FDGW, the enrichment ratio is at most 0.25.

In the case of SLCK, the enrichment ratio stood at 8.42.

With VNDN, the enrichment ratio was at most 0.25.

As for YEHY, the enrichment ratio is at most 0.25.

Regarding YETD, the enrichment ratio is at most 0.25.

As to WCDW, the enrichment ratio was at most 0.25.

With HEIC, the enrichment ratio was at most 0.25.

As to VWVE, the enrichment ratio is at most 0.25.

Turning to LVED, the enrichment ratio was at most 0.25.

GAKR: the enrichment ratio is at most 0.25.

In the case of AREW, the enrichment ratio was at most 0.25.

As for VTWW, the enrichment ratio is at most 0.25.

Take MDVH: the enrichment ratio was 3.03.

For the variant KVGK, the enrichment ratio is at most 0.25.

Consider YKRM, for which the enrichment ratio was at most 0.25.

Turning to APLT, the enrichment ratio was at most 0.25.

For FNVC, the enrichment ratio is at most 0.25.

For the variant WEMS, the enrichment ratio is at most 0.25.

For the variant TRVP, the enrichment ratio was at most 0.25.

As to ILTD, the enrichment ratio was at most 0.25.

With GFCS, the enrichment ratio was at most 0.25.

As to VQRG, the enrichment ratio is at most 0.25.

Consider YVCI, for which the enrichment ratio was at most 0.25.

For PWWW, the enrichment ratio was at most 0.25.

For the variant LVHM, the enrichment ratio is at most 0.25.

As for PTGH, the enrichment ratio is at most 0.25.

Consider MSTV, for which the enrichment ratio came out at 11.1.

AYCR: the enrichment ratio is at most 0.25.

As for KSSK, the enrichment ratio was at most 0.25.

Turning to SANK, the enrichment ratio is at most 0.25.

On to YWNH, for which the enrichment ratio is at most 0.25.

Turning to LGGW, the enrichment ratio is at most 0.25.

Regarding FMWG, the enrichment ratio is at most 0.25.

Turning to IVEW, the enrichment ratio is at most 0.25.

Regarding HDLY, the enrichment ratio is at most 0.25.

Take PFRP: the enrichment ratio is at most 0.25.

In the case of NITC, the enrichment ratio was at most 0.25.

FEDF: the enrichment ratio was at most 0.25.

For MNSD, the enrichment ratio is at most 0.25.

As for GPAE, the enrichment ratio is at most 0.25.

Turning to PARC, the enrichment ratio was at most 0.25.

Regarding IHVT, the enrichment ratio is at most 0.25.

In the case of QPLC, the enrichment ratio is at most 0.25.

Turning to NIKQ, the enrichment ratio is at most 0.25.

For YWKG, the enrichment ratio was at most 0.25.

Turning to SFYH, the enrichment ratio was at most 0.25.

For FFYN, the enrichment ratio was at most 0.25.

As for DPYM, the enrichment ratio is at most 0.25.

On to ENLM, for which the enrichment ratio was at most 0.25.

For YDRA, the enrichment ratio was at most 0.25.

LGFH: the enrichment ratio turned out to be 0.628.

With GNLS, the enrichment ratio is 6.74.

For FMNK, the enrichment ratio is at most 0.25.

For the variant HVSN, the enrichment ratio was at most 0.25.

Consider KEGL, for which the enrichment ratio was at most 0.25.

Turning to NLGW, the enrichment ratio is at most 0.25.

As for LTEL, the enrichment ratio was at most 0.25.

Consider IQKD, for which the enrichment ratio is at most 0.25.

In the case of PTVN, the enrichment ratio is at most 0.25.

As to VNNL, the enrichment ratio is at most 0.25.

Regarding QLPY, the enrichment ratio was at most 0.25.

LYCY: the enrichment ratio was at most 0.25.

PRER: the enrichment ratio was at most 0.25.

Consider RWCR, for which the enrichment ratio was at most 0.25.

Regarding WDQD, the enrichment ratio is at most 0.25.

FFYP: the enrichment ratio was at most 0.25.

Take MNMG: the enrichment ratio was at most 0.25.

For IKAP, the enrichment ratio is at most 0.25.

For SVYC, the enrichment ratio was found to be 1.85.

With IVAR, the enrichment ratio is at most 0.25.

Turning to DEKA, the enrichment ratio is at most 0.25.

Regarding NMMG, the enrichment ratio is at most 0.25.

Turning to VSVA, the enrichment ratio is at most 0.25.

In the case of MHGY, the enrichment ratio was at most 0.25.

As to FPMI, the enrichment ratio is at most 0.25.

Consider ITDT, for which the enrichment ratio is at most 0.25.

Regarding VWCE, the enrichment ratio was at most 0.25.

For QKPT, the enrichment ratio is at most 0.25.

For FWPR, the enrichment ratio was at most 0.25.

With YEMG, the enrichment ratio is at most 0.25.

In the case of MFTE, the enrichment ratio is at most 0.25.

For the variant FMQF, the enrichment ratio was at most 0.25.

As for SPEE, the enrichment ratio was at most 0.25.

For SAPV, the enrichment ratio came out at 5.29.

KKKN: the enrichment ratio is at most 0.25.

Consider QAKG, for which the enrichment ratio is at most 0.25.

Turning to DRCI, the enrichment ratio is at most 0.25.

In the case of WNFD, the enrichment ratio was at most 0.25.

As to VRYM, the enrichment ratio is at most 0.25.

Take SYWQ: the enrichment ratio was at most 0.25.

Turning to PMVM, the enrichment ratio is at most 0.25.

As for MTIV, the enrichment ratio was at most 0.25.

As to WHID, the enrichment ratio is at most 0.25.

Regarding WDTM, the enrichment ratio is at most 0.25.

In the case of RIFF, the enrichment ratio is at most 0.25.

In the case of EKNC, the enrichment ratio was at most 0.25.

YWPV: the enrichment ratio worked out at 0.6.

For the variant PDCQ, the enrichment ratio is at most 0.25.

In the case of LGWR, the enrichment ratio was at most 0.25.

Regarding QSQY, the enrichment ratio is at most 0.25.

As to TYQQ, the enrichment ratio was at most 0.25.

For the variant SFWQ, the enrichment ratio is at most 0.25.

As to IWFH, the enrichment ratio was at most 0.25.

On to PHLT, for which the enrichment ratio was at most 0.25.

YGIL: the enrichment ratio came to 1.43.

For the variant NDMR, the enrichment ratio was at most 0.25.

Consider LGYE, for which the enrichment ratio is at most 0.25.

With YRYT, the enrichment ratio was at most 0.25.

Turning to TPPV, the enrichment ratio was at most 0.25.

Turning to WSLV, the enrichment ratio stood at 5.78.

For the variant TQWA, the enrichment ratio is 17.1.

DQYH: the enrichment ratio was at most 0.25.

Regarding LSYG, the enrichment ratio is at most 0.25.

Turning to LPFW, the enrichment ratio is at most 0.25.

In the case of EYGA, the enrichment ratio is at most 0.25.

Turning to LHVA, the enrichment ratio was at most 0.25.

On to RRKI, for which the enrichment ratio was at most 0.25.

These data come from a collection of fitness landscapes (doi:10.1126/science.1257360).
